Among all 310,000 compounds or so, about 2,200 (0.71%) showed an effect of 50% or more. Effects have a minus sign here. This is one part of the list.

Chain of human ether-à-go-go-related gene (hERG) potassium channel (Q12809 whole entry, looked up): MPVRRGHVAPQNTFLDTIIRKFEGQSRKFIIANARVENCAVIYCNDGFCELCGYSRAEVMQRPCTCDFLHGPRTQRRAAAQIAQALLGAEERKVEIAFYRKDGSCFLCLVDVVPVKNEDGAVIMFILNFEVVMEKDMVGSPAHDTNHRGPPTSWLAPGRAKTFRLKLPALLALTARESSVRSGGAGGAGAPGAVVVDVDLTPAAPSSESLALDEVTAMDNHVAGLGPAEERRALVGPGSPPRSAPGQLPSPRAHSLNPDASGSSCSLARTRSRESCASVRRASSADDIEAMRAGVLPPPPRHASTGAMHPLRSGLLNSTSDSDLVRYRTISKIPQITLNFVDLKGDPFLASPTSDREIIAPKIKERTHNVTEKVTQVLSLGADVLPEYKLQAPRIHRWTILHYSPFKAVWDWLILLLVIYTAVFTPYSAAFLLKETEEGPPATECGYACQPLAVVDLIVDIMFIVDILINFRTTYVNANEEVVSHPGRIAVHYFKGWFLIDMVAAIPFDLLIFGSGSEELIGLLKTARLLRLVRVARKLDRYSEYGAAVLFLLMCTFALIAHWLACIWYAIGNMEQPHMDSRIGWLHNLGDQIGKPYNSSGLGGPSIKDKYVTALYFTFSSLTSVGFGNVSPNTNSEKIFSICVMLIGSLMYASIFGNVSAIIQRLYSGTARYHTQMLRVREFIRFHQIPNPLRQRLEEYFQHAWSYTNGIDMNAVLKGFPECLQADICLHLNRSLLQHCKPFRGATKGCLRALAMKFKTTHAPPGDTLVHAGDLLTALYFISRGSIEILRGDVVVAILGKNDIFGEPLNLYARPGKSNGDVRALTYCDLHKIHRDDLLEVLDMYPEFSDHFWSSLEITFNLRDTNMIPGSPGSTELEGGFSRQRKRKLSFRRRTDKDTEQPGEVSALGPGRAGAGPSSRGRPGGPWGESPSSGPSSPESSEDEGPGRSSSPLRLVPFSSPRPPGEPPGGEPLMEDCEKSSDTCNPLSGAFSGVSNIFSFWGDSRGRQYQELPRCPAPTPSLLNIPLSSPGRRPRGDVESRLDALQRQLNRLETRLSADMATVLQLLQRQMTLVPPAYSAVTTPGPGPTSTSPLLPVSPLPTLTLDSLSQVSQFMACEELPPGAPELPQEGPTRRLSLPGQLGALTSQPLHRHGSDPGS

The assay has as its target human ether-à-go-go-related gene (hERG) potassium channel (human, UniProt Q12809). Kind of assay: primary screen, population patch clamp on CHO cells stably expressing hERG.
Consider `CN(CC(=O)NC(=O)NCc1ccco1)Cc1nc2ccccc2c(=O)[nH]1`, for which the “hERG current change (%, negative = inhibition) at 1uM” value amounted to 8.98%.
For `Cn1c(C(O)c2ccc(Br)cc2)nc(Cl)c1Cl` (centres unmarked) the value was 1.19%; for `CC1CCCN(S(=O)(=O)c2cc(Cl)ccc2Cl)C1` (centres unmarked), -2.83%.
The same measure for `CN1CCN(CC#Cc2ccccc2)CC1CCO` (centres unmarked): 12%.
With `O=C(NNC(=O)c1ccccc1[N+](=O)[O-])c1ccccc1[N+](=O)[O-]`, the “hERG current change (%, negative = inhibition) at 1uM” value is 19.1%.
For `COc1cccc(/C=N/NC(N)=S)c1OCc1cccc(Cl)c1` the value was 8.77%; for `CN(c1ccc(C(=O)NC2CCCC2)cc1)S(=O)(=O)c1ccccc1`, 6.22%; for `O=C(CSc1nc(O)c(Cc2ccccc2F)c(=O)[nH]1)N1CCCCCC1`, 14%.
With `N#Cc1ccc(Cl)cc1NC(=O)COC(=O)c1cccc(S(=O)(=O)N2CCOCC2)c1`, the “hERG current change (%, negative = inhibition) at 1uM” value is -0.432%.
For `COc1cc(NC(=O)c2ccc(CNc3c(N4CCOCC4)c(=O)c3=O)cc2)cc(OC)c1` the value was 0.103%.
For `CCCCn1c(=O)[nH]c(=O)c2c1nc(-c1cc(Cl)c(OC)c(OC)c1)n2C` the value was 13.9%; for `COc1cc(C(=O)Nc2sc3c(c2C(=O)O)CCC3)cc(OC)c1OC`, 17.3%; for `Cc1cccc(C(=O)NC(=S)NNC(=O)Cc2ccccc2)c1`, 7.19%.
For `O=C(NCCc1ccccn1)c1cc(C(=O)C2CCCCC2)c[nH]1` the value was -7.13%; for `O=C(OCC(=O)N1CCc2ccccc21)c1ccc[n+]([O-])c1`, 7.06%.
Regarding `CCCCC(=O)NCCNc1nc2c(c(=O)n(C)c(=O)n2C)n1Cc1ccccc1`, the “hERG current change (%, negative = inhibition) at 1uM” value came to 30.8%.
In the case of `Cc1cc(-c2nnc(CCC(=O)NCc3cccc(C(F)(F)F)c3)o2)no1`, the “hERG current change (%, negative = inhibition) at 1uM” value turned out to be 11.8%.
Take `Cc1ccc(C2C(C(N)=S)=C(N)OC3=C2C(=O)CC(C)(C)C3)cc1` (centres unmarked): the “hERG current change (%, negative = inhibition) at 1uM” value was found to be 3.19%.
For the compound `CCN(CC)CCN1C(=O)C(=O)/C(=C(/O)c2cnn(-c3ccccc3)c2C)C1c1ccc(C)o1` (centres unmarked), the “hERG current change (%, negative = inhibition) at 1uM” value was found to be 1.78%.
For `CCc1nc2oc3ccccc3c(=O)c2c(=O)n1Cc1ccccc1` the value was 17.9%; for `CC(C)Nc1oc(-c2cccc3ccccc23)nc1C#N`, 5.19%; for `COc1ccc(C(=O)Nc2c(Cl)cc(Cl)cc2C(=O)N2CCC(C)CC2)cc1`, 6.41%.
The same measure for `Cc1cc(OCC(=O)N(C)Cc2ccccc2)ccc1Cl`: 13.4%; for `CCCCOc1ccc(CSC(=N)N)cc1Cl.Cl`: 12.8%; for `Cn1c(SCC(=O)Nc2ccccc2)nc2ccccc2c1=O`: 10.5%.
For `COc1cc(-c2nc3cnccn3c2Nc2ccc(C)cc2)ccc1O` the value was 4.26%; for `CCOc1ccc(NC(=O)c2ccco2)cc1S(=O)(=O)N1CCCC1`, -9.38%.
For `C/C(=N\NC(=O)c1cccc(S(=O)(=O)N2CCCCC2)c1)c1ccc(C)o1`, the “hERG current change (%, negative = inhibition) at 1uM” value worked out at 2.52%.
The same measure for `O=C(OCn1nnc2ccccc2c1=O)c1ccc(S(=O)(=O)N2CCOCC2)cc1`: 13.1%.
For `CCCNC(=O)c1ccc(COc2ccc(C(C)(C)C)cc2)o1` the value was 12.4%.
The same measure for `COc1cccc2sc(Nc3nc(C)c(C(C)=O)s3)nc12`: 6.26%.
Take `O=c1[nH]c(COc2ccc(Br)cc2Cl)nc2ccccc12`: the “hERG current change (%, negative = inhibition) at 1uM” value came out at 13.8%.
For `COC(=O)Nc1ccc(N2CCOCC2)c(S(=O)(=O)N2CCOCC2)c1` the value was -7.28%; for `COC(=O)c1c(-c2ccc(OC)cc2)sc2cc3c(cc12)OCO3`, 8.17%.
The same measure for `Cc1cc(C)c(OCCCCn2cnc3ccccc3c2=O)c(C)c1`: 8.04%; for `CC(C)(C)n1nc2c(c1NC(=O)c1ccco1)CS(=O)C2` (centres unmarked): 14%; for `COc1ccccc1C(=O)N(Cc1ccc(Cl)cc1)C1CCS(=O)(=O)C1` (centres unmarked): 9.72%.
The same measure for `CS(=O)(=O)c1ccc2nc(NC(=O)C3CC3)sc2c1`: 11.5%; for `COc1ccc(N2CCN(C(=O)c3ccc(C)c(NC(=O)C4=C(C)OCCS4)c3)CC2)cc1`: 9.35%; for `COc1ccc(C(=O)CCC(=O)NCCc2c[nH]c3ccccc23)cc1OC`: 14%.
For the compound `CCCCn1c(-c2ccsc2)nc2c1c(=O)[nH]c(=O)n2CCC`, the “hERG current change (%, negative = inhibition) at 1uM” value was -0.0342%.
For `CCOC(=O)N1CCN(C(=S)Nc2cccc(C)c2C)CC1` the value was 16.8%; for `COc1ccc(C(=O)NCc2cc(C(C)C)no2)cc1OC1CCN(C(C)C)CC1`, -11.3%.
The same measure for `Cc1cc(C)cc(N(CC(=O)NCCSCc2ccccc2)S(C)(=O)=O)c1`: 5.91%.

The record behind these values is article PMC4336329 (PLoS ONE, 2015).
